Measured values from article PMC2394266, “Downregulation of urokinase plasminogen activator receptor expression inhibits Erk signalling with concomitant suppression of invasiveness due to loss of uPAR–β1 integrin complex in colon cancer cells” (British Journal of Cancer, 2003).

Biological target: β1 integrin (human (endogenous in HCT116), UniProt P05556)
Assay: cell-based or functional assay

β1 integrin, sequence (P05556 21-798): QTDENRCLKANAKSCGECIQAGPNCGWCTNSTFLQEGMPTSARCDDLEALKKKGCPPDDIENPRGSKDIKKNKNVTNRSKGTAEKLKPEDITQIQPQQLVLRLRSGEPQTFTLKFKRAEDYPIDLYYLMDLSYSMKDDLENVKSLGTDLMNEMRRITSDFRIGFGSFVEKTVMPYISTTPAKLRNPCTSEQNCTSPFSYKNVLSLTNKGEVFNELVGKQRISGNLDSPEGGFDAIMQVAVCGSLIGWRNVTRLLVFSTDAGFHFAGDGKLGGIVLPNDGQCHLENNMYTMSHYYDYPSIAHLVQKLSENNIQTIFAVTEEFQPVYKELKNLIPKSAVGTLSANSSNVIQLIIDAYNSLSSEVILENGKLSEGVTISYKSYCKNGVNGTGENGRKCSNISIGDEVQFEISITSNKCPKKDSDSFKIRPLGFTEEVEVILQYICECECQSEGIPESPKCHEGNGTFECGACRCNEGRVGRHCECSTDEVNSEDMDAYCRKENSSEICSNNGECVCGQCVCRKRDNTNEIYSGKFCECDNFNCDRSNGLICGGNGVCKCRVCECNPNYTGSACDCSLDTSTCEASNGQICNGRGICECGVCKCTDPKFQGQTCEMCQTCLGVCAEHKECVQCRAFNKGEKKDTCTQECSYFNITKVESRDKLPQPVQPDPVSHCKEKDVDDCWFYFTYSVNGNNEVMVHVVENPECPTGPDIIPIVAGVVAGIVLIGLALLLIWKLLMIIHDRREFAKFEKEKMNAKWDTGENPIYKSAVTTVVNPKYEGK

suppression of pro-MMP-2 secretion (gelatin zymography, densitometry) by mock HCT116 cells with P25 peptide (100 μM): 7 fold | suppression of pro-MMP-9 secretion (gelatin zymography, densitometry) by mock HCT116 cells with P25 peptide (100 μM): 3 fold | uPA (20 nM, 30 min)-induced Erk activation (phospho-Erk1/2 Western blot, densitometry) in acid-stripped mock HCT116 cells in the presence of P25 peptide (100 μM), which disrupts the complex: 1.6 fold | uPA (20 nM, 30 min)-induced Erk activation (phospho-Erk1/2 Western blot, densitometry) in acid-stripped mock HCT116 cells, control and Scp-treated (100 μM): 2.5 fold
B1: urokinase plasminogen activator receptor (receptor)
chain: not shown
